Experimental data as given in paper PMC9694146, “Novel [1,2,4]triazolo[3,4-b][1,3,4]thiadiazine and [1,2,4]triazolo[3,4-b][1,3,4]thiadiazepine Derivatives: Synthesis, Anti-Viral In Vitro Study and Target Validation Activity” (Molecules, 2022).

Columns and labels:
[1] = system: influenza A/Puerto Rico/8/34 (H1N1) virus; settings: CC50 (MDCK) / IC50 (influenza A/Puerto Rico/8/34)
[2] = system: influenza A/Puerto Rico/8/34 (H1N1) virus; assay: microbe, parasite or virus in culture; settings: H1N1, MDCK, Table 3, repeated from Table 2 for comparison, unit inferred
[3] = system: influenza A/Puerto Rico/8/34 (H1N1) virus; assay: organism not typed; settings: MDCK, 72 h, read-out: IC50, effective concentration, the concentration resulting in 50% inhibition of virus replication, influenza virus A/Puerto Rico/8/34 in MDCK cells

Row | Compound | SI, selectivity index; ratio CC50/IC50 [1] | IC50 [2] | IC50 [3]
1 | CCc1nnc2n1N=C/C(=C/c1ccccc1)S2 [Compound 6c, (Z)-7-benzylidene-3-ethyl-7H-[1,2,4]triazolo[3,4-b][1,3,4]thiadiazine] | 8 | 118 ± 12.7 µM | 118 ± 12.7 µM
2 | CCC(CC)O[C@@H]1C=C(C(=O)O)C[C@H](N)[C@H]1NC(C)=O [Oseltamivir carboxylate, reference compound] | >588 | – | 0.17 ± 0.02 µM
3 | Sc1nncn1N=CC#Cc1ccccc1 [Compound 1a, 4-((3-phenylprop-2-yn-1-ylidene)amino)-4H-1,2,4-triazole-3-thiol] | 8 | 16.2 ± 2.1 µM | 16.2 ± 2.1 µM
4 | CCc1nnc2n1N=CC=C(c1ccccc1)S2 [Compound 7c, 3-ethyl-8-phenyl-[1,2,4]triazolo[3,4-b][1,3,4]thiadiazepine] | <2 | > 3 µM | > 3 µM
5 | CCCc1nnc2n1N=C/C(=C/c1ccccc1)S2 [Compound 6d, (Z)-7-benzylidene-3-propyl-7H-[1,2,4]triazolo[3,4-b][1,3,4]thiadiazine] | – | 33.6 ± 4.4 µM | 34 µM
6 | Cc1nnc2n1N=C/C(=C/c1ccccc1)S2 [Compound 6b, (Z)-7-benzylidene-3-methyl-7H-[1,2,4]triazolo[3,4-b][1,3,4]thiadiazine] | 4 | 99.9 ± 11.8 µM | 99.9 ± 11.8 µM
7 | CCCc1nnc(S)n1NCC#Cc1ccccc1 [Compound 2d, 5-propyl-4-((3-phenylprop-2-yn-1-yl)amino)-4H-1,2,4-triazole-3-thiol] | 1 | 101 ± 12.4 µM | 101 ± 12.4 µM
8 | Cc1nnc2n1NCC=C(c1ccccc1)S2 [Compound 10b, 3-methyl-8-phenyl-5,6-dihydro-[1,2,4]triazolo[3,4-b][1,3,4]thiadiazepine] | – | 41.4 ± 5.1 µM | 41.4 ± 5.1 µM
9 | C1=C(c2ccccc2)Sc2nncn2NC1 [Compound 10a, 8-phenyl-5,6-dihydro-[1,2,4]triazolo[3,4-b][1,3,4]thiadiazepine] | >2 | 703 ± 82.9 µM | 703 ± 82.9 µM
10 | CCCc1nnc2n1NC/C(=C/c1ccccc1)S2 [Compound 8d, (Z)-7-benzylidene-3-propyl-6,7-dihydro-5H-[1,2,4]triazolo[3,4-b][1,3,4]thiadiazine] | >19 | 58 ± 6.6 µM | 58 ± 6.6 µM
11 | C(=C1\CNn2cnnc2S1)/c1ccccc1 [Compound 8a, (Z)-7-benzylidene-6,7-dihydro-5H-[1,2,4]triazolo[3,4-b][1,3,4]thiadiazine] | – | 39.5 ± 5.1 µM | 39.5 ± 5.1 µM
12 | Sc1nncn1NCC#Cc1ccccc1 [Compound 2a, 4-((3-phenylprop-2-yn-1-yl)amino)-4H-1,2,4-triazole-3-thiol] | >300 | 4.3 ± 1 µM | 4.3 ± 1 µM
13 | CCc1nnc(S)n1NCC#Cc1ccccc1 [Compound 2c, 5-ethyl-4-((3-phenylprop-2-yn-1-yl)amino)-4H-1,2,4-triazole-3-thiol] | 13 | 37.2 ± 4.1 µM | 37.2 ± 4.1 µM
14 | CCc1nnc(S)n1N=CC#Cc1ccccc1 [Compound 1c, 5-ethyl-4-((3-phenylprop-2-yn-1-ylidene)amino)-4H-1,2,4-triazole-3-thiol] | – | 11.3 ± 2.2 µM | 11.3 ± 2.2 µM
15 | CC(N)C12CC3CC(CC(C3)C1)C2 (stereo not shown) [Rimantadine, reference compound] | – | 64.1 ± 7.2 µM | 64.1 ± 7.2 µM
16 | C1=Nn2cnnc2S/C1=C\c1ccccc1 [Compound 6a, (Z)-7-benzylidene-7H-[1,2,4]triazolo[3,4-b][1,3,4]thiadiazine] | – | 34.2 ± 4.2 µM | 34.2 ± 4.2 µM
17 | Cc1nnc(S)n1N=CC#Cc1ccccc1 [Compound 1b, 5-methyl-4-((3-phenylprop-2-yn-1-ylidene)amino)-4H-1,2,4-triazole-3-thiol] | 5 | 24.8 ± 2.9 µM | 24.8 ± 2.9 µM
18 | C1=Nn2cnnc2SC(c2ccccc2)=C1 [Compound 7a, 8-phenyl-[1,2,4]triazolo[3,4-b][1,3,4]thiadiazepine] | <3 | > 13 µM | > 13 µM
19 | Cc1nnc2n1NC/C(=C/c1ccccc1)S2 [Compound 8b, (Z)-7-benzylidene-3-methyl-6,7-dihydro-5H-[1,2,4]triazolo[3,4-b][1,3,4]thiadiazine] | – | > 1200 µM | > 1200 µM
20 | Cc1nnc(S)n1NCC#Cc1ccccc1 [Compound 2b, 5-methyl-4-((3-phenylprop-2-yn-1-yl)amino)-4H-1,2,4-triazole-3-thiol] | >12 | 106 ± 12.5 µM | 106 ± 12.5 µM
21 | CCc1nnc2n1NC/C(=C/c1ccccc1)S2 [Compound 8c, (Z)-7-benzylidene-3-ethyl-6,7-dihydro-5H-[1,2,4]triazolo[3,4-b][1,3,4]thiadiazine] | >23 | 50.3 ± 6.2 µM | 50.3 ± 6.2 µM
22 | CCc1nnc2n1NCC=C(c1ccccc1)S2 [Compound 10c, 3-ethyl-8-phenyl-5,6-dihydro-[1,2,4]triazolo[3,4-b][1,3,4]thiadiazepine] | <3 | > 300 µM | > 300 µM
